Reference: the supplement of paper PMC4466236
In all, about 33,000 sequences were measured (“E-score (dimensionless, -0.5 to 0.5)”: median about -0.058, highest 2% from about 0.35 on). The list shows a part of the results.

Tested on: MvaT
Experiment: PBM 8-mer E-score (mean of HK and ME arrays) (E-score (dimensionless, -0.5 to 0.5)); higher = stronger relative binding preference; most listed sequences are background and not binding sites
Procedure: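 Protein binding microarray: GST-tagged full-length MvaT (P. aeruginosa PAO1) bound to two universal double-stranded 60-mer arrays (ME and HK), each with a constant 25-mer primer and a variable 35-mer region covering all 8-mers. The 8-mer E-score (rank-based, range -0.5 to 0.5, >0.45 = specific binding) is the mean of the two arrays.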

Sequence	PBM 8-mer E-score
TGCCTAAA	0.0359
CAACGCTG	-0.0694
AGCGTTTA	0.0503
GCCGAAGA	-0.0891
GGGGCAAA	-0.145
CATCTAAA	0.121
AAATGCCT	-0.0883
GACATGTA	0.238
ACTGCAAC	0.0811
GCCTAGCA	-0.27
AATATCCT	0.183
CCGGTCAG	-0.0505
ATCCGGTC	-0.186
GTCCATAA	0.0831
CACACTAA	0.102
ACTCGTAT	0.0784
AGAGACCC	-0.314
GACCGTGC	-0.112
GTGAGCGA	-0.064
AGGCTGAA	-0.179
CCGTCTCC	-0.264
CAGGAGCG	-0.212
AAGGGTGA	-0.247
CCCAGACC	-0.252
CGAGTCCA	-0.208

Sequence	PBM 8-mer E-score
GAGCGAAA	0.00854
CTGGGCTC	-0.278
ACTTAACT	0.275
CTCGGGCC	-0.287
CAATGGAC	-0.00508
ACTGCATA	0.0711
CCGCCCAG	-0.0541
GACTGCTA	-0.0765
ATTTAGCG	0.243
ACCACAAC	0.155
AACCGATT	0.0532
CGAACCAC	-0.118
AGTGCTCC	-0.282
AGAATCAG	-0.00486
ATGTATCA	0.291
GAGTAATC	-0.00607
GTAAATCA	0.189
AAAATGTT	0.262
GCTGGACC	-0.262
CGGAACAG	-0.0406
GAAGCCGC	-0.331
TCCCACCA	-0.165
GACTGCTC	-0.211
CAGGCATA	0.0107
GATAGCAC	-0.0624

Sequence	PBM 8-mer E-score
GGGACGGA	-0.273
AAGTACGA	0.133
CCGTTGAA	-0.0332
CAGAATCC	-0.168
ATCGGCTA	-0.0243
TATAACGA	0.374
CCCACCTA	-0.127
ACGAGTGC	-0.179
ACTAAACC	0.146
GCGTAACC	-0.127
CGCCACCA	-0.103
ATGGTTAC	-0.0232
CATATAGC	0.0736
GGATTGGA	0.0676
CGACTTAC	-0.107
AAGGGCAG	-0.213
ACAGTAAA	0.241
GAGTGACC	-0.186
GGCAATTA	0.211
CTGTTTAA	0.302
ATACCGGC	-0.106
CCTTCGTA	-0.28
CTTTCGGC	-0.243
CACATCTG	-0.163
AGTACGGG	-0.11

Sequence	PBM 8-mer E-score
TAAGCTAA	0.139
AATCGCAA	0.0838
ATGGATAC	0.0416
AAACAAAG	0.192
AAGTAAAC	0.192
GTCGCCAC	-0.145
CGATAGTC	-0.0515
CGTGGCAA	-0.0428
TCATTTAA	0.327
GTACCGAC	-0.2
AGAACTCT	0.0401
AGGCACCG	-0.214
GAGAGGCA	-0.227
CCACACCA	-0.0264
TCTGGTAA	0.0776
GGTTACGA	-0.168
ATGGGGTG	-0.257
ATTAAGGC	0.172
CACTTTAC	0.164
CTAATCAA	0.102
CGTCTAAC	-0.0692
AGGACGCC	-0.274
CAGCGAAA	-0.0595
CCCTTTCA	-0.089
GTGGCCTA	-0.304

Sequence	PBM 8-mer E-score
ATTACAAG	0.278
CACGGGGA	-0.0937
GCTAATAC	0.27
CTCTTCCA	-0.234
ACATTATA	0.396
CCGTATCA	-0.0815
TTGATAAA	0.253
ATAACGGG	0.121
ATGAATCA	0.123
GACAAGTC	-0.291
CATACACG	0.0143
CTGCAGGA	-0.114
TCCGAGAA	-0.205
GAATGACA	-0.0156
AATAGCGT	0.0308
CGAGCTCA	-0.276
CAGGTAAG	-0.0439
AGGCGGTA	-0.196
GTAAGCGA	0.0773
CCATAAAC	0.122
AGACGCGC	-0.176
CGACCCGA	-0.254
AAGAATGT	0.141
CCAGGCGG	-0.163
GGGTGGCA	-0.102

Sequence	PBM 8-mer E-score
GGTCCCAC	-0.151
AGGTCGAA	-0.0945
AAACTGCC	-0.11
CGTTCAGA	-0.134
AGTACAAA	0.286
CGGCGATA	0.0426
CAACACTG	0.0109
CGCTACCC	-0.219
CGATAACA	0.271
ATGATGCA	0.0558
ATTGCATA	0.202
AGCTAACC	-0.149
ACTGATAT	0.282
ACACAAAT	0.237
AAGCATGG	-0.163
AACACGAG	0.0124
CCGCAGAG	-0.17
ATATGCAC	0.337
AGGTGGTC	-0.218
GTTACCCA	0.0319
GATCGGAC	-0.286
AAGATTAC	0.1
ACCTGAGG	-0.13
GCGATAGA	-0.258
ATCGTTGG	-0.167

Sequence	PBM 8-mer E-score
AAGTATCA	0.204
CAAACCAA	0.184
ATATAGCA	0.324
ACACGCGG	-0.136
GCTACACC	-0.125
GCCTGGAA	-0.104
ACATGTAG	0.209
AACACTAC	0.105
CGGCACAG	-0.151
GAGATTTA	0.0378
GTCGTACA	0.06
ATGCGGAA	-0.0895
CCACACGG	-0.162
AGAATCGC	-0.0249
CACTATGC	0.012
AGCCGTGC	-0.283
ACTTAATA	0.4
CAAAGCTA	-0.186
ACGCCAAA	-0.0145
CCGCGAAA	-0.151
GGATTGAC	-0.169
AGAAGCCA	-0.118
